Publication PMC8037323, “Apigenin and Ampicillin as Combined Strategy to Treat Severe Streptococcus suis Infection” (Molecules, 2021)

Biological target: suilysin (SLY); recombinant rSLY (Streptococcus suis, UniProt Q55996)
Test: biochemical

## O=c1cc(-c2ccc(O)cc2)oc2cc(O)cc(O)c12 [apigenin]
  Kd: 276 nM
